PubChem BioAssay AID720709 (National Center for Advancing Translational Sciences (NCATS), 2013)
About 520 (0.14%) of roughly 360,000 compounds were called active. Inconclusive results, whose numbers are uncertain, are shown with a selection of clear calls. Calls come from the whole dose curve; as a rule, active = well fitted inhibition curve with a large enough effect; inconclusive = small, poorly fitted or top-dose-only effect; inactive = no such curve, though single readings can be large or run the other way. No potency is given beside an inconclusive call; the fits are too rough.

target: Rap guanine nucleotide exchange factor 3 (Homo sapiens) (UniProt O95398); experiment: qHTS for Antagonist of cAMP-regulated guanine nucleotide exchange factor 3 (EPAC1): primary screen; conditions: EPAC1 GEF assay, Rap1b-BODIPY-GDP exchange fluorescence; series mostly up to 115 µM; note: nearly all actives have a fitted effect of over 50% in size
Sequence of UniProt O95398 (O95398 whole entry, looked up): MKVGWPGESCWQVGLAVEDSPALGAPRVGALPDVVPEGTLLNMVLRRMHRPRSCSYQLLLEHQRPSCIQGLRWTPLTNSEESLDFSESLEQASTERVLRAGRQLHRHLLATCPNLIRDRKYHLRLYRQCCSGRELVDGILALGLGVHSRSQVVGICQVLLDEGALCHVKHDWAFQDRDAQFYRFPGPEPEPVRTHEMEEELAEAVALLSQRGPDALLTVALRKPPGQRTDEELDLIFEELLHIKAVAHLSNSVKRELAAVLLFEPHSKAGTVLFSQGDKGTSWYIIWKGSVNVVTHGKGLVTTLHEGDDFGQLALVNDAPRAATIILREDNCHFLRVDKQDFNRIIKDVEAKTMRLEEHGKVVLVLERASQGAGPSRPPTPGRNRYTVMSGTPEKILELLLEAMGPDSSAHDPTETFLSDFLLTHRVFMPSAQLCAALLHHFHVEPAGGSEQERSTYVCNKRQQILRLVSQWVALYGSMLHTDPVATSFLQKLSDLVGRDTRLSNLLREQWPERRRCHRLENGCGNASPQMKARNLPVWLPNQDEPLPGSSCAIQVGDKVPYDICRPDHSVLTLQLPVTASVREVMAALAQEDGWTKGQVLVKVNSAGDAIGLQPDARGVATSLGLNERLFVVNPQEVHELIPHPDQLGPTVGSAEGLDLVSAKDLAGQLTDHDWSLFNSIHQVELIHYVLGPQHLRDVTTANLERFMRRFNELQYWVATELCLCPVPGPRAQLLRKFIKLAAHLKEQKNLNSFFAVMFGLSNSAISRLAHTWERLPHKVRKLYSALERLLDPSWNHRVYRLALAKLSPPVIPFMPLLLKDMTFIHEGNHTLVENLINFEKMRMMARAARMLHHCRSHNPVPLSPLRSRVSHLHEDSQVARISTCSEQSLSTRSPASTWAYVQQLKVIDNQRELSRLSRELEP
Potency is the fitted concentration of half-maximal effect; tags give direction and shape of the fitted curve.

Structure (SMILES)	Potency
O=C(O)c1ccccc1C=NN=C1c2ccccc2-c2ccccc21	inconclusive [inhibitor, single point]
Cc1cn([C@H]2C[C@H](O)[C@@H](CNC/C=C/c3ccccc3[N+](=O)[O-])O2)c(=O)[nH]c1=O	inconclusive [inhibitor, partial curve]
Nc1nc(N=Nc2ccc(O)cc2)cc(=O)[nH]1	inconclusive [inhibitor, full curve]
COC(=O)Cn1cnc2sc3c(c2c1=O)CCCC3	inconclusive [inhibitor, full curve, poor fit]
CCN1C(=O)[C@@H]2Cc3c([nH]c4ccccc34)C(c3cc(OC)c(OC)c(OC)c3)N2C1=S (some centres not stated)	inconclusive [inhibitor, partial curve]
CCCc1ccc(NS(=O)(=O)c2c(C)oc(C)c2C(=O)OC)cc1	inconclusive [inhibitor, single point]
CCOC(=O)C1=C(C)N(C)C(=S)NC1c1ccc(Cl)cc1Cl (configuration not stated)	inconclusive [inhibitor, full curve, poor fit]
CSCCC(NC(=O)COc1ccccc1)C(=O)NCc1cccs1 (configuration not stated)	inconclusive [inhibitor, full curve, poor fit]
CCC(=O)Nc1nc2ccc(NC(=O)c3cc(OC)c(OC)c(OC)c3)cc2s1	inconclusive [inhibitor, partial curve, poor fit]
COC(=O)c1sc(-c2ccc(C(C)(C)C)cc2)cc1NC(=O)c1ccccc1C(=O)O	active: 56.2 µM
COc1ccc(CNC(=O)CN(C(=O)CCC(=O)Nc2nccs2)c2cccc(C)c2)cc1	inconclusive [inhibitor, partial curve]
CC(=O)N(Cc1cccc(Br)c1)c1ccc(N2CCOCC2)c(Cl)c1	inconclusive [inhibitor, partial curve]
CCOC(=O)c1ccc(NC(=O)N2CCN(Cc3ccccc3)CC2)cc1	inconclusive [inhibitor, partial curve]
Cc1ccc(Nc2nnc(SCC(=O)Nc3cccc(S(=O)(=O)N4CCCCC4)c3)s2)cc1	inconclusive [inhibitor, full curve]
Cc1ccccc1NS(=O)(=O)c1ccc(C(=O)NCC2(N3CCOCC3)CCCCC2)cc1	inconclusive [inhibitor, partial curve]
COc1ccc(NC(=O)C2(C)CCN2CC2CCCCC2)cc1OC (configuration not stated)	inactive
CN(C)S(=O)(=O)c1ccc(Cl)c(NC(=O)COC(=O)CC(NC(N)=O)c2ccc(Cl)cc2)c1 (configuration not stated)	inconclusive [inhibitor, partial curve]
